# The other results are listed elsewhere or left out.
# B1: Blon2468mut (Bifidobacterium longum) (protein)
# chain: MTFIKQMMPRYVASMTAGIVAAAMAATCAFAPVANADAVSPTQETIQSTGRHFMVYYRAWRDVTMKGVNTDLPDDNWISMYDIPYGVDVVNIFSYVPSGQEEQAQPFYDKLKSDYAPYLHSRGIKLVRGIDYTGVAVNGFRTFMKEQNKTESEATEADYDAYAKQVIDKYMISVGLDGLDIDMQAHPNDADVKISDNVIRALSKHIGPKSAKPDTTMFLYDTNGSYLNPFKNVAECFDYVAYQQYGSSSDRTARAAADYQPYIGNEFVPGLTFPEEGDMNNRWYDATEPYEESHFYQVASYVREHNLGGMFVYALDRDGRNYDEDLRRIVPSNLLWTKTAIAESEGMALDTAKTAANHYLDRMSLRQVIDDNAASADKARDMVGKAANLYETNKAVLGGDYGEGFSNTYDPTLEAGLLGIDISVLQQQIDKSSEIIGADTAESDAKTALRMARDAAIDGLTGKIYTADQVSAWSQALKAALDATVPVPTPDSTDQNGNRDKVTNHKVQGQPKQLSATGISTDIIVAVGVTLAIAGVALSLSRKLS
# Legend:
# Assay in all cases: glycan array binding signal (z-score within array); higher = stronger binding
# Settings in all cases: glycan notation: IUPAC condensed, linker removed
# [1] = target: Neu5Ac(a2-3)Gal(b1-4)GlcNAc(b1-6)[Gal(b1-3)]GalNAc
# Procedure, shortened: (§1)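 Negative Z-scores can be read as non-binding. The Z-score is calculated within each array and then averaged across arrays of one protein sequence at different concentrations or buffers and across linkers. Arrays, 3228 in all, were curated from the Consortium for Functional Glycomics database and kept only where the protein sequence was available.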
# [2] = target: Neu5Ac(a2-3)Gal(b1-4)GlcNAc(b1-6)[Neu5Ac(a2-3)Gal(b1-3)]GalNAc
# Procedure, shortened: as §1
# [3] = target: Neu5Ac(a2-3)Gal(b1-4)GlcNAc6S
# Procedure, shortened: as §1
# [4] = target: Neu5Ac(a2-3)Gal(b1-4)[Fuc(a1-3)]GlcNAc
# Procedure, shortened: as §1
# [5] = target: Neu5Ac(a2-3)Gal(b1-4)[Fuc(a1-3)]GlcNAc(b1-2)Man
# Procedure, shortened: as §1
# [6] = target: Neu5Ac(a2-3)Gal(b1-4)[Fuc(a1-3)]GlcNAc(b1-3)Gal
# Procedure, shortened: as §1
# [7] = target: Neu5Ac(a2-3)Gal(b1-4)[Fuc(a1-3)]GlcNAc(b1-3)Gal(b1-4)GlcNAc
# Procedure, shortened: as §1
# [8] = target: Neu5Ac(a2-3)Gal(b1-4)[Fuc(a1-3)]GlcNAc(b1-3)Gal(b1-4)[Fuc(a1-3)]GlcNAc(b1-3)Gal(b1-4)[Fuc(a1-3)]GlcNAc
# Procedure, shortened: as §1
# [9] = target: Neu5Ac(a2-3)Gal(b1-4)[Fuc(a1-3)]GlcNAc(b1-3)GalNAc
# Procedure, shortened: as §1
# [10] = target: Neu5Ac(a2-3)Gal(b1-4)[Fuc(a1-3)]GlcNAc(b1-6)[Gal(b1-3)]GalNAc
# Procedure, shortened: as §1
# [11] = target: Neu5Ac(a2-3)Gal(b1-4)[Fuc(a1-3)]GlcNAc(b1-6)[Neu5Ac(a2-3)Gal(b1-3)]GalNAc
# Procedure, shortened: as §1
# [12] = target: Neu5Ac(a2-3)Gal(b1-4)[Fuc(a1-3)]GlcNAc6S
# Procedure, shortened: as §1
# [13] = target: Neu5Ac(a2-3)Gal6S(b1-4)GlcNAc
# Procedure, shortened: as §1
# [14] = target: Neu5Ac(a2-3)Gal6S(b1-4)[Fuc(a1-3)]GlcNAc
# Procedure, shortened: as §1
# [15] = target: Neu5Ac(a2-3)GalNAc
# Procedure, shortened: as §1
# [16] = target: Neu5Ac(a2-3)GalNAc(b1-4)GlcNAc
# Procedure, shortened: as §1
# [17] = target: Neu5Ac(a2-3)[GalNAc(b1-4)]Gal(b1-4)Glc
# Procedure, shortened: as §1
# [18] = target: Neu5Ac(a2-3)[GalNAc(b1-4)]Gal(b1-4)GlcNAc
# Procedure, shortened: as §1
# [19] = target: Neu5Ac(a2-3)[GalNAc(b1-4)]Gal(b1-4)GlcNAc(b1-3)GalNAc
# Procedure, shortened: as §1
# [20] = target: Neu5Ac(a2-3)[Neu5Ac(a2-6)]GalNAc
# Procedure, shortened: as §1
# [21] = target: Neu5Ac(a2-6)Gal
# Procedure, shortened: as §1
# [22] = target: Neu5Ac(a2-6)Gal(b1-3)GlcNAc(b1-3)[Gal(b1-4)GlcNAc(b1-6)]Gal(b1-4)Glc
# Procedure, shortened: as §1
# [23] = target: Neu5Ac(a2-6)Gal(b1-4)Glc
# Procedure, shortened: as §1
# [24] = target: Neu5Ac(a2-6)Gal(b1-4)GlcNAc
# Procedure, shortened: as §1
# [25] = target: Neu5Ac(a2-6)Gal(b1-4)GlcNAc(b1-2)Man
# Procedure, shortened: as §1
# [26] = target: Neu5Ac(a2-6)Gal(b1-4)GlcNAc(b1-2)Man(a1-3)Man(b1-4)GlcNAc(b1-4)GlcNAc
# Procedure, shortened: as §1
# [27] = target: Neu5Ac(a2-6)Gal(b1-4)GlcNAc(b1-2)Man(a1-3)[Gal(b1-4)GlcNAc(b1-2)Man(a1-6)]Man(b1-4)GlcNAc(b1-4)GlcNAc
# Procedure, shortened: as §1
# [28] = target: Neu5Ac(a2-6)Gal(b1-4)GlcNAc(b1-2)Man(a1-3)[GlcNAc(b1-2)Man(a1-6)]Man(b1-4)GlcNAc(b1-4)GlcNAc
# Procedure, shortened: as §1
# [29] = target: Neu5Ac(a2-6)Gal(b1-4)GlcNAc(b1-2)Man(a1-3)[GlcNAc(b1-4)][Neu5Ac(a2-6)Gal(b1-4)GlcNAc(b1-2)Man(a1-6)]Man(b1-4)GlcNAc(b1-4)GlcNAc
# Procedure, shortened: as §1
# [30] = target: Neu5Ac(a2-6)Gal(b1-4)GlcNAc(b1-2)Man(a1-3)[Man(a1-6)]Man(b1-4)GlcNAc(b1-4)GlcNAc
# Procedure, shortened: as §1
binder,measurement,setting,value
B1,glycan array binding signal (z-score),[1],-0.074
same,glycan array binding signal (z-score),[2],-0.032
same,glycan array binding signal (z-score),[3],-0.041
same,glycan array binding signal (z-score),[4],-0.096
same,glycan array binding signal (z-score),[5],-0.048
same,glycan array binding signal (z-score),[6],-0.081
same,glycan array binding signal (z-score),[7],-0.02
same,glycan array binding signal (z-score),[8],-0.068
same,glycan array binding signal (z-score),[9],-0.04
same,glycan array binding signal (z-score),[10],-0.067
same,glycan array binding signal (z-score),[11],-0.064
same,glycan array binding signal (z-score),[12],-0.064
same,glycan array binding signal (z-score),[13],-0.051
same,glycan array binding signal (z-score),[14],-0.07
same,glycan array binding signal (z-score),[15],-0.052
same,glycan array binding signal (z-score),[16],-0.035
same,glycan array binding signal (z-score),[17],-0.066
same,glycan array binding signal (z-score),[18],-0.075
same,glycan array binding signal (z-score),[19],-0.069
same,glycan array binding signal (z-score),[20],-0.059
same,glycan array binding signal (z-score),[21],-0.068
same,glycan array binding signal (z-score),[22],-0.056
same,glycan array binding signal (z-score),[23],-0.055
same,glycan array binding signal (z-score),[24],-0.072
same,glycan array binding signal (z-score),[25],-0.069
same,glycan array binding signal (z-score),[26],-0.082
same,glycan array binding signal (z-score),[27],-0.077
same,glycan array binding signal (z-score),[28],-0.092
same,glycan array binding signal (z-score),[29],-0.072
same,glycan array binding signal (z-score),[30],-0.068
